Changes are numbered by the printed parent chain. No constants are given. Whether binding was seen depends on the method and setting. In cells and extracts the contact can be indirect. Some binding calls cover weakened binding; strength is not graded here. For some of these results: Where a sequence is shown, tags or fusion partners need not be part of it. Values belong to the molecule of their own block, whether it stands above or below them.
Columns and labels:
[1] = target: T1, Strep-tagged CDAN1 (ST-CDAN1), wildtype (human, UniProt Q8IWY9 1-1227); experiment: pull-down; Strep-Tactin pulldown of ST-CDAN1 variants co-transfected with FLAG-tagged ASF1A or ASF1B variants in Flp-In 293 T-REx cells; immunoblotting; IP buffer with 1% Triton X-100, 1 hr at 4 °C
T1 construct: Codanin-1 (CDAN1), human, 1227 residues; cDNA from Horizon Discovery/Dharmacon, its point mutation S421F corrected; same construct used in Expi293 and in Flp-In 293 T-REx cells; dimer by SEC-MALS and cryo-EM; also called Strep-CDAN1; WT CDAN1; source: Expi293, transiently transfected, in lysate and purified in complexes (anti-FLAG, Strep-Tactin); Flp-In 293 T-REx, transiently transfected, in …
T1 sequence: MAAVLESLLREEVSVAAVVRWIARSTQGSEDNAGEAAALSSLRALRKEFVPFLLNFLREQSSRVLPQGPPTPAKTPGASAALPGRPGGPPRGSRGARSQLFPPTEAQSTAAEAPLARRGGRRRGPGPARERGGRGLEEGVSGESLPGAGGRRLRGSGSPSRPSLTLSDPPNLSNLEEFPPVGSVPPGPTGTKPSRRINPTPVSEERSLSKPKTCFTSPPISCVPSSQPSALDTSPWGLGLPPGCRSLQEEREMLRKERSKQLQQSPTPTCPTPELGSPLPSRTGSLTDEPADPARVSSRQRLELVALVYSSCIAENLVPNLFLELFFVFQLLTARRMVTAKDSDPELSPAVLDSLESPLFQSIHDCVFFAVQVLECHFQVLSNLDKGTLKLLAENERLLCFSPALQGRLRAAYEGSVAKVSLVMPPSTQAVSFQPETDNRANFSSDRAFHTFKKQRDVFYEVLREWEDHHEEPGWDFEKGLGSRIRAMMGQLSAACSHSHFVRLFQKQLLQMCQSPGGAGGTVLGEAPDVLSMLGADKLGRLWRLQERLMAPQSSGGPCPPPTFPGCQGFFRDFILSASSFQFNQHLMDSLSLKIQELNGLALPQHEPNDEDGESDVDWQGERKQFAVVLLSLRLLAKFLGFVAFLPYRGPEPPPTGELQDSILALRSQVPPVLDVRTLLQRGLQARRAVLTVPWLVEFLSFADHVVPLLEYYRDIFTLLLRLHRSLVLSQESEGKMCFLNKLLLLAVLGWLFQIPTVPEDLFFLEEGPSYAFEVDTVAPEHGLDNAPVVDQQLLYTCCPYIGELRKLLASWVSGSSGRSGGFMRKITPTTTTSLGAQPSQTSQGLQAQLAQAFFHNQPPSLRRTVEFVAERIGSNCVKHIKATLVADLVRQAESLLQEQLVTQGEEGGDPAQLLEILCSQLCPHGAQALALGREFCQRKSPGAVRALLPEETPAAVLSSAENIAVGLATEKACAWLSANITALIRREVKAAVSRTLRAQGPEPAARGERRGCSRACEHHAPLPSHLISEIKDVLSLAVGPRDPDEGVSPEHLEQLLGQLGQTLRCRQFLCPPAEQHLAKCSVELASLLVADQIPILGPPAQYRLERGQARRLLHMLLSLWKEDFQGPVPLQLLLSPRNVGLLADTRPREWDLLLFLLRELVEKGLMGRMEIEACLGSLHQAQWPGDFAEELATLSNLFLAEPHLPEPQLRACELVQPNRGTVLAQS

Chains of the proteins cited; added tags and fusions are not shown. Lines headed by an entry give the natural chain unless they say otherwise; changes in a name come on top. A line that says so, or that is headed by a name, gives the form on record, which may keep a tag or linker.
UniProt Q9NVP2: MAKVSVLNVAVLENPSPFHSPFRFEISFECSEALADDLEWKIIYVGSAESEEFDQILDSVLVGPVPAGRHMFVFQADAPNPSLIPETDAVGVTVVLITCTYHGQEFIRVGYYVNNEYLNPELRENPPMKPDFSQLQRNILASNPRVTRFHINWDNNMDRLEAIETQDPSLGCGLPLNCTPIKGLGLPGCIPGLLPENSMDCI
FLAG-ASF1B N > A (ASF1B with the NTD of ASF1A) (Q9NVP2, form named): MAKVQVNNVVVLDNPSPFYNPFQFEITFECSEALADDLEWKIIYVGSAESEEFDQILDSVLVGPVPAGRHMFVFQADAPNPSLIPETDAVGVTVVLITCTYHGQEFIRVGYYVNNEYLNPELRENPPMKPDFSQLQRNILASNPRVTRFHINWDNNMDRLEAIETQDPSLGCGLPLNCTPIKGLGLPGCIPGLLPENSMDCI
UniProt Q9Y294: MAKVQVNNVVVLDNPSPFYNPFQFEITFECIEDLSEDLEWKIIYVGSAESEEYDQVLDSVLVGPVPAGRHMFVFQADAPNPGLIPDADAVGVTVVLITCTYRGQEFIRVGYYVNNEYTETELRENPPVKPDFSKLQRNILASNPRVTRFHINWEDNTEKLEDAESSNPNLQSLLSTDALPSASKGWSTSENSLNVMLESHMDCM
FLAG-ASF1A N > B (ASF1A with the NTD of ASF1B) (Q9Y294, form named): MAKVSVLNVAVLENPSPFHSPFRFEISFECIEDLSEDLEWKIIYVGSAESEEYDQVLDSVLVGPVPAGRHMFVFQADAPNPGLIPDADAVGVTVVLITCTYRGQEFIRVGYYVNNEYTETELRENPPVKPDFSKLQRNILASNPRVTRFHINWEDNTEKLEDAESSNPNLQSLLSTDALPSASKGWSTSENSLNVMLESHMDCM

[2] = target: T2, Strep-CDAN1 BDA2* (S194A/R195A/R196A) (human) (UniProt Q8IWY9); experiment: as above
T2 sequence: T1 sequence with S194A, R195A, R196A

[3] = target: T3, endogenous CDAN1 with a C-terminal HaloTag-FLAG (HF) tag (human (endogenous in Flp-In 293 T-REx)) (UniProt Q8IWY9); experiment: co-IP; anti-FLAG M2 agarose IP of endogenously HaloTag-FLAG tagged CDAN1 or CDIN1 from Flp-In 293 T-REx lysates; IP buffer 50 mM HEPES pH 7.5, 100 mM KOAc, 2.5 Mg(OAc)2, 1% Triton X-100, 1 mM DTT; immunoblotting
T3 sequence: T1 sequence

- binding [1]: binds
- binding [2]: binds
Molecule: FLAG-ASF1B N > A (ASF1B with the NTD of ASF1A) (from UniProt Q9NVP2 1-202)

- binding [1]: binds
- binding [2]: binds
Molecule: FLAG-ASF1A N > B (ASF1A with the NTD of ASF1B) (from UniProt Q9Y294 1-204)

- binding [2]: binds
Molecule: FLAG-tagged ASF1A (F-ASF1A) (from UniProt Q9Y294 1-204)

- binding [1]: binds
- binding [2]: binds
Molecule: FLAG-tagged ASF1B (F-ASF1B) (from UniProt Q9NVP2 1-202)

- binding [3]: binds
Molecule: endogenous ASF1B (from UniProt Q9NVP2 1-202)

- binding [3]: binds
Molecule: endogenous ASF1A (from UniProt Q9Y294 1-204)

- binding [3]: binds
B1: FLAG-tagged CDIN1 (F-CDIN1) (natural protein, UniProt Q9Y2V0 1-281, looked up)
chain: MILTKAQYDEIAQCLVSVPPTRQSLRKLKQRFPSQSQATLLSIFSQEYQKHIKRTHAKHHTSEAIESYYQRYLNGVVKNGAAPVLLDLANEVDYAPSLMARLILERFLQEHEETPPSKSIINSMLRDPSQIPDGVLANQVYQCIVNDCCYGPLVDCIKHAIGHEHEVLLRDLLLEKNLSFLDEDQLRAKGYDKTPDFILQVPVAVEGHIIHWIESKASFGDECSHHAYLHDQFWSYWNRFGPGLVIYWYGFIQELDCNRERGILLKACFPTNIVTLCHSIA
notes: C15orf41); cDNA synthesized by IDT; source: Expi293, transiently transfected, in lysate and purified in complexes (anti-FLAG, Strep-Tactin); not shown: 3xFLAG, N-terminal, kept

From publication PMC11911400, “Mechanism of ASF1 engagement by CDAN1” (Nature Communications, 2025)
